# From paper PMC4336329 (PLoS ONE, 2015)
# In all, about 310,000 compounds went through this assay and about 2,200 (0.71%) showed an effect of 50% or more. The effect is printed as a negative number. Some of the results follow.
# Molecular target: human ether-à-go-go-related gene (hERG) potassium channel (human, UniProt Q12809)
# Test: primary screen, population patch clamp on CHO cells stably expressing hERG
# human ether-à-go-go-related gene (hERG) potassium channel, sequence (Q12809 whole entry, looked up): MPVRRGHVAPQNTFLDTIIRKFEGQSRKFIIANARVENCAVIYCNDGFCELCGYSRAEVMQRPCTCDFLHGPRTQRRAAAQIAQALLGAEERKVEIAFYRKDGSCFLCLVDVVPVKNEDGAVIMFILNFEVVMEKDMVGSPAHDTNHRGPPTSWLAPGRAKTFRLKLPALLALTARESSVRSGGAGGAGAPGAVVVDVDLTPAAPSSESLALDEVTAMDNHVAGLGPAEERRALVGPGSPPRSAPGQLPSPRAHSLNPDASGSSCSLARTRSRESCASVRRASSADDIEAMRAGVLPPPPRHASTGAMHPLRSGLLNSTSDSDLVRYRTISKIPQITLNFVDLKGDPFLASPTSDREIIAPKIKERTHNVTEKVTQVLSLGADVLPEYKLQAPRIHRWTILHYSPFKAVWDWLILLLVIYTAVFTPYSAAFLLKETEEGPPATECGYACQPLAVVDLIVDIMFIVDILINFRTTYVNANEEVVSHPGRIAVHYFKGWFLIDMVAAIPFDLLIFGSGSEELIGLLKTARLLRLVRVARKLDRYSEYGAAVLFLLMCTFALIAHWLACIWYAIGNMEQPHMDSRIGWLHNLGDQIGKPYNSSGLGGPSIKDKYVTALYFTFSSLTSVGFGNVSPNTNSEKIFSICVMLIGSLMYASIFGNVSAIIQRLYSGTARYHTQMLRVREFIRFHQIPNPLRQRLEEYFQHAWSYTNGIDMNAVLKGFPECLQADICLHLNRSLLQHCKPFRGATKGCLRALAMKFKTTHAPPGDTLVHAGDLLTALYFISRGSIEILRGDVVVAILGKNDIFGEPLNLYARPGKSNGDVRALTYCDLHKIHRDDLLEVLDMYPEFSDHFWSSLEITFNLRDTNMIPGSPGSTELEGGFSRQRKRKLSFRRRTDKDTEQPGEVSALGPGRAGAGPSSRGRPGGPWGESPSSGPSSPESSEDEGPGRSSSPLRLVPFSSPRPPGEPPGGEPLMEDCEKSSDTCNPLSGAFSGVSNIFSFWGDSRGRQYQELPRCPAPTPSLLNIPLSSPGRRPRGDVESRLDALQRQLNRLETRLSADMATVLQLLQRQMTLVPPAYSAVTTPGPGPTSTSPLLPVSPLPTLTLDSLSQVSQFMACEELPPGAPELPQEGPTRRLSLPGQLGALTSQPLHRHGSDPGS
row,Structure (SMILES),"hERG current change (%, negative = inhibition) at 1uM"
1,Cc1cc(C)cc(NC(=O)CSc2nc3c(c(=O)n2C)SC(C)C3)c1 (stereo not shown),10.2%
2,O=C(NCc1cccc(Cl)c1)NC(=O)c1csc([N+](=O)[O-])c1,11.9%
3,CCC(Sc1nc(C)cc(=O)[nH]1)C(=O)Nc1nc2c(s1)CCCC2 (stereo not shown),4.71%
4,CCOC(=O)N1CCC(NC(=O)c2cccn3c(=O)c4cc(Br)ccc4nc23)CC1,10.4%
5,CCOC(=O)/C(=N/Nc1ccc(OC)cc1)Sc1nnc(CCc2ccccc2)n1-c1ccccc1,13%
6,Cc1nc(SCC(=O)NCc2ccco2)nc(C)c1C,5.57%
7,CC1Cc2ccccc2N1C(=O)COC(=O)CCc1nc2ccccc2c(=O)[nH]1 (stereo not shown),-4.35%
8,O=C(NC(=O)c1ccccc1)Nc1ccc(-c2cnco2)cc1,16%
9,Cn1c(C(=O)NCCC2=CCCCC2)cc2c(=O)n3ccccc3nc21,15.1%
10,CCN(CC(=O)NCc1ccc(Cl)cc1)C(=O)/C=C/c1ccco1,-2.84%
11,COc1ccc(CCNC(=O)CCCN2C(=O)c3ccccc3C2=O)cc1,12.8%
12,COc1ccc(CNC(=O)C2CCN(C(=O)N(C)C)CC2)c(OC)c1,-0.878%
13,Cc1nc2ccccn2c1C(=O)N=Nc1c(O)[nH]c2ccccc12,13.2%
14,CCCCOc1ccc(NC(=S)Nc2cc(C)nc(SCCCC)n2)cc1,16.1%
15,CCOC(=O)C1=C(C)N(c2ccccc2)C(=O)C1,8.2%
16,CC1(c2ccccc2)NC(=O)N(CC(=O)NCCC2=CCCCC2)C1=O (stereo not shown),18.4%
17,COc1ccc(N2CC(C(=O)Nc3ccc(S(=O)(=O)N4CCCCC4)cc3)CC2=O)cc1 (stereo not shown),16%
18,O=C(c1cccnc1)N1CCN(c2c(Cl)cccc2[N+](=O)[O-])CC1,-17.9%
19,O=c1c[n+]([O-])c2ccccc2n1OCc1ccccn1,20.9%
20,COc1ccc(C2=NOC(C(=O)NCc3ccccc3)C2)cc1 (stereo not shown),3.71%

row,Structure (SMILES),"hERG current change (%, negative = inhibition) at 1uM"
1,CCn1nnnc1SCC(=O)Nc1nc2ccccc2s1,19.6%
2,CCCCOc1ccc(NS(=O)(=O)c2ccc(-n3cnnn3)cc2)cc1,1.67%
3,CC(C)(C)Cc1nc(-c2ccc(Cl)cc2)no1,9.77%
4,CCN(C(=O)c1ccc2c(=O)n3c(nc2c1)CCCCC3)c1ccc(F)cc1,9.73%
5,CCCCNC(=O)C1(O)c2ccccc2NC(=O)N1c1ccc(Cl)cc1 (stereo not shown),15.7%
6,CCOc1ccc(/C=N/NC(=O)C(O)c2ccccc2)c(O)c1 (stereo not shown),15.3%
7,CCOCCn1c(CN2CCc3ccccc3C2)nc2c1c(=O)n(C)c(=O)n2C,6.8%
8,Cc1ccc(OCc2ccc(C(=O)Nc3ccc(C(N)=O)cc3)o2)c([N+](=O)[O-])c1,3.6%
9,CC1CCCCC1NC(=O)CSc1nnc(N)s1 (stereo not shown),-18.4%
10,COc1ccc(C(=O)C2CCCN(C3CSCCSC3)C2)cc1OC (stereo not shown),3.17%
11,COc1ccc(/C=C2\CCn3c2nc2cc(C(=O)O)ccc2c3=O)cc1O,4.31%
12,O=C(NCc1ccccc1)C1(C(F)(F)F)C/C(=C/CCO)CCCO1 (stereo not shown),9.59%
13,CS(=O)(=O)N(CC(=O)Nc1ccccc1C(=O)N1CCCC1)c1cccc([N+](=O)[O-])c1,7.35%
14,COc1ccc2c(c1)C(NS(=O)(=O)OCC(Cl)(Cl)Cl)CCC2 (stereo not shown),4.09%
15,CCOc1ccc(NCCC#N)cc1,-6.96%
16,O=c1[nH]c(NCc2ccccc2)nc2c1CCC2,11.2%
17,COCCCn1c(=O)c2sccc2n2c(CCCC(=O)N3CCN(c4ccccn4)CC3)nnc12,10.9%
18,COc1cc(NS(=O)(=O)N2CCCC2)cc(OC)c1OC,10.6%
19,Nc1nnc(SCCN2C(=O)c3ccccc3S2(=O)=O)s1,6.7%
20,NC(=O)C1CC(=O)N(c2ccc(OCC(=O)Nc3ccccc3F)cc2)C1 (stereo not shown),8.02%

row,Structure (SMILES),"hERG current change (%, negative = inhibition) at 1uM"
1,CCn1c(CNC(=O)c2ccc(Cl)cc2)nnc1SCC(=O)N1CCOCC1,7.08%
2,Cc1ccc(CNC(=O)C2CCCN(S(=O)(=O)N3CCC(C)CC3)C2)cc1 (stereo not shown),15%
3,NC(=O)c1cc([N+](=O)[O-])ccc1N1CCN(Cc2ccccc2)CC1,-12.1%
4,Cc1cccc(N(CC(=O)NC2CCCC2)C(=O)CCCC(=O)Nc2ccccn2)c1,6.08%
5,CCC1CCCCN1C(=O)CSc1nc2c([nH]c3ccccc32)c(=O)n1C (stereo not shown),10.3%
6,CC(C)Cn1c(N)c(C(=O)COC(=O)c2cc(C(F)(F)F)nc3ccccc23)c(=O)n(C)c1=O,11%
7,c1ccc2c(c1)COC(CN1CCCCC1)OC2,4.39%
8,CC(=O)N(c1ccc(C)cc1)C1C=CS(=O)(=O)C1 (stereo not shown),6.55%
9,CC(=O)Nc1ccc(S(=O)(=O)N2CCC(C(=O)Nc3nccs3)CC2)cc1,15.9%
10,CCc1ccc(/C=N/NC(=O)Cc2ccc(OC)c(OC)c2)s1,14.4%
11,COc1cccc(C(Nc2ccccn2)c2oc(CO)cc(=O)c2O)c1 (stereo not shown),12.4%
12,CCC(=O)Nc1ccc(C(=O)n2ccc(C)n2)cc1,11.1%
13,O=C(COc1ccc(F)cc1Cl)NC1CCCCCC1,6.08%
14,COc1ccc(-n2ncc3c2CC(C)(C)CC3NC(=O)c2c(C)cc(=O)oc2C)cc1 (stereo not shown),10.8%
15,N#Cc1ccc(C(=O)OCC(=O)Nc2ccc(S(N)(=O)=O)cc2)cc1,9.84%
16,COC(=O)N/N=C1\CCCc2ccccc21,12.3%
17,O=C1CC(Cc2ccc(Cl)cc2)C(=O)N1c1cc(Cl)ccn1 (stereo not shown),-10.2%
18,CCOC(=O)c1cc(-c2ccccc2)sc1NC(=O)C(C)N1C(=O)NC(C)(c2ccc(Cl)cc2)C1=O (stereo not shown),6.49%
